Data taken from PubChem BioAssay AID1466 (National Center for Advancing Translational Sciences (NCATS), 2008).
Out of some 200,000 compounds screened, about 10 (0.005%) were called active. The shares of active, inactive and inconclusive entries below differ from those in the screen. Calls follow the shape of the dose curve; as a rule, active = well fitted inhibition curve with a large enough effect; inconclusive = small, poorly fitted or top-dose-only effect, or effect the other way, or another doubt; inactive = no such curve, though single readings can be large or run the other way. A potency beside an inconclusive call is a rough fit, not a confirmed value.

Target: Lysosomal alpha-glucosidase (Homo sapiens) (UniProt P10253)
Experiment: qHTS Assay for Inhibitors of Human alpha-Glucosidase as a Potential Chaperone Treatment of Pompe Disease;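 as to activity change, negative = inhibition: plate controls were uninhibited enzyme wells for no effect and no-enzyme background for full effect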
Settings: purified human GAA, 4-MU-alpha-glucoside fluorescence; activity change, negative = inhibition: at 76.9 µM (top of the series) unless noted
Outline: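 Activity normalized between no-enzyme (basal) and enzyme-only wells. Conditions: 4 nM human enzyme, 400 uM fluorogenic substrate, citrate/phosphate pH 5.0 with Tween-20, 20 min room temperature, compounds up to 77 uM.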
Potency is read from the fitted curve at half-maximal effect; tags tell the direction and shape of the fitted curve.

Potency, inconclusive:
Cc1ccc(Cn2nc(C)c(NC(=O)c3noc4c3CCCCC4)c2C)cc1 35.5 µM [inhibitor, partial curve, poor fit], Cc1c(C(=O)NCC2COc3ccccc3O2)oc2ccc(S(=O)(=O)N3CCOCC3)cc12 (centres undefined) 20 µM [inhibitor, partial curve], Cc1cc(NC(=O)c2cc(-c3ccc(C)s3)nc3ccccc23)no1 35.5 µM [activator, single point], COc1ccc(CC(=O)OCC(=O)Nc2cc(S(=O)(=O)N3CCOCC3)ccc2N2CCCC2)cc1 50.1 µM [inhibitor, single point], CCOCCCNC(=S)NCCCNc1nc2cc3c(cc2cc1C#N)OCO3 25.1 µM [activator, partial curve], Cc1[nH]nc(Sc2ccccn2)c1[N+](=O)[O-] 6.31 µM [inhibitor, single point], CCCNC(C)C(=O)Nc1ccccc1C (centres undefined) 3.98 µM [inhibitor, partial curve, poor fit], COCCCn1c(=N)c(C(=O)NCC2CCCO2)cc2c(=O)n3cccc(C)c3nc21 (centres undefined) 35.5 µM [activator, partial curve], CC(=O)N1CCN(c2ccccc2NC(=O)COc2cc(C)ccc2C(C)C)CC1 50.1 µM [inhibitor, partial curve, poor fit], O=C(Nc1ccc(S(=O)(=O)N2CCOCC2)cc1)c1ccc2c(c1)S(=O)(=O)c1ccccc1C2=O 50.1 µM [inhibitor, single point], Cc1cc(C)n(-c2nc3ccccc3[nH]c2=O)n1 39.8 µM [activator, partial curve], Nc1ccc(SCCN2C(=O)c3ccccc3C2=O)cc1 11.2 µM [inhibitor, single point], COc1ccccc1Cn1nnc2c(=O)[nH]c(C3CCN(C(=O)c4ccc(F)cc4)CC3)nc21 50.1 µM [inhibitor, partial curve, poor fit], COc1ccc(OCC(=O)Nc2ccc(N3CCN(C(=O)c4ccco4)CC3)cc2)cc1 7.94 µM [inhibitor, single point], CCOC(=O)C1(Cc2ccccc2)CCCN(Cc2ccncc2)C1 (centres undefined) 8.91 µM [inhibitor, partial curve, poor fit], COc1ccc(-c2ccc(-c3noc(-c4cccs4)n3)c(OC)n2)cc1 31.6 µM [activator, partial curve], COc1ccc(NC(=O)c2oc3ccccc3c2NC(=O)c2ccco2)c(OC)c1 39.8 µM [activator, partial curve], O=C(O/N=C(\c1ccccc1)c1ccccn1)c1ccc(Cl)c(Cl)c1 11.2 µM [inhibitor, single point], Cc1nc2c(C(=O)NCCc3ccccc3Cl)c[nH]n2c(=O)c1Cl 44.7 µM [inhibitor, single point], COc1c(Br)cc(Br)cc1/C=N/NC(=O)c1ccncc1 5.01 µM [activator, single point], CCOC(=O)c1cc2ccc(OC)cc2oc1=O 31.6 µM [activator, partial curve], N#Cc1cc2c(=O)n3ccccc3nc2n(-c2ccccc2Cl)c1=O 35.5 µM [activator, partial curve], Oc1ccc(/C=N/NC2=NCCCCC2)cc1 12.6 µM [inhibitor, single point], CCOC(=O)N1CCN(C(=O)c2cn(CCOC)c(=O)c3c2c2ccccc2n3C)CC1 35.5 µM [activator, single point], CCC(C)(C)n1nnnc1C(c1cc2cc(OC)c(OC)cc2[nH]c1=O)N1CCc2ccccc21 (centres undefined) 31.6 µM [inhibitor, single point], Cc1c(O)ccc2c(CN3CCN(CCO)CC3)cc(=O)oc12 35.5 µM [activator, partial curve], CCCCC1NC(C(=O)O)CS1 (centres undefined) 35.5 µM [inhibitor, single point], Cc1nn(Cc2ccccc2)c(N)c1-c1ccccc1 56.2 µM [inhibitor, single point], O=C(CN1CCOCC1)N/N=C/c1cc2ccccc2nc1Cl 5.62 µM [inhibitor, single point], CCCCNc1ccccc1C(=O)OCC(=O)Nc1ccc(S(N)(=O)=O)cc1 31.6 µM [activator, partial curve], CC(=O)C1=C(C)NC(SCc2cccc([N+](=O)[O-])c2)=C(C#N)C1c1ccco1 (centres undefined) 0.158 µM [inhibitor, full curve, poor fit], O=C(Nc1ccc(Oc2ccc3c(c2)C(=O)N(c2ccc(O)cc2)C3=O)cc1)c1cccs1 56.2 µM [inhibitor, single point], Cn1c(N)c(C#N)c2c(c1=S)CSC(C)(C)C2 11.2 µM [inhibitor, single point], O=[N+]([O-])c1ccc(N2CCCCCC2)c([N+](=O)[O-])c1 1.58 µM [inhibitor, full curve, poor fit], Cc1ccc(-n2c(=O)c(C#N)cc3c(=O)n4ccccc4nc32)cc1 25.1 µM [activator, partial curve], CCCCn1c(SCC(=O)N2CCC(C)CC2)nc2cc(S(N)(=O)=O)ccc21 11.2 µM [inhibitor, single point], COC(=O)[C@@]1(Cc2ccc(F)cc2)[C@H]2c3cc(C(=O)N(C)C)n(C[C@H](O)CO)c3C[C@H]2CN1C(=O)c1ccccc1 50.1 µM [inhibitor, single point], CCOC(=O)c1nc2sc(C)c(C)c2c(=O)[nH]1 31.6 µM [activator, partial curve], C/C(=N\Nc1ccc([N+](=O)[O-])cc1)c1ccc(-n2nncc2C)cc1 11.2 µM [inhibitor, single point], O=[N+]([O-])c1cc(Cl)cc(/C=N/NC(=S)Nc2cc(S(=O)(=O)N3CCOCC3)ccc2Cl)c1O 14.1 µM [inhibitor, partial curve], Cc1c(C(=O)OC(C)C)sc(NC(=O)C2CCCO2)c1C(=O)OC(C)C (centres undefined) 35.5 µM [inhibitor, single point], Cc1ccc(S(=O)(=O)Nc2nc3ccccc3nc2Nc2cccc(S(=O)(=O)N3CCCC3)c2)cc1 25.1 µM [activator, partial curve], O=C(CN(CC1CCCO1)S(=O)(=O)c1ccc(S(=O)(=O)NC2CC2)cc1)Nc1ccccc1 (centres undefined) 7.08 µM [inhibitor, partial curve], O=C(c1cc2c(=O)n3ccccc3nc2s1)N1CCc2ccccc2C1 44.7 µM [activator, partial curve]

Activity change, negative = inhibition, inconclusive:
O=C(Nc1nnc(/N=C/c2ccco2)s1)c1ccc(F)cc1 14.8% [activator], CC1OC23CCCCC2C(C#N)(C(=N)O3)C1(C#N)C#N (centres undefined) 24.6% [activator], CCOC(=O)CSc1nc2cc3c(cc2cc1C)OCO3 15.4% [activator], CCOC(=O)c1nn(-c2ccccc2)c(C#N)c1N 23.8% [activator], COCCNC(=S)N1CCN(c2nc3ccccc3s2)CC1 4.06% [activator], NC(=O)c1ccccc1OCC(=O)NC12CC3CC(CC(C3)C1)C2 15.9% [activator], Cc1cc(C(=O)N/N=C/c2ccc3c(c2)OCO3)c(C)o1 -16.4% [inhibitor], Cc1nn2c(c1-c1ccccc1)NC1=C(C(=O)CCC1)C2c1ccccc1 (centres undefined) 16.1% [activator], CCOC(=O)N1CCN(S(=O)(=O)c2ccc(Br)s2)CC1 -15.4% [inhibitor], CN(c1ccc(OCC(=O)OCC(=O)Nc2ccc(Br)cc2)cc1)S(=O)(=O)c1cccs1 -18.2% [inhibitor], CS(=O)(=O)c1ccc2c(c1)sc1nc(=O)c(/C=C3/C=CC(=O)C(O)=C3)c(N)n12 -16.8% [inhibitor], COc1ccc(S(=O)(=O)N2CCN(c3nc4ccccc4nc3-n3nc(C)cc3C)CC2)cc1 -16.2% [inhibitor], CCOC(=O)Nc1ccc(S(=O)(=O)N2CCOCC2)cc1 -15.6% [inhibitor], O=[N+]([O-])c1cccc(CNCc2ccccc2)c1 14.1% [activator]

Activity change, negative = inhibition, inactive:
O=C(Cn1cnc2sc(-c3ccccc3)cc2c1=O)NCc1ccco1 -6.36%, CN(C)c1ccc(C=NCCc2ccc(S(N)(=O)=O)cc2)cc1 4.96%, Oc1ccc(Br)cc1C=Nc1cccn2cc(-c3ccccc3)nc12 10.9%, COc1ccc(OC)c(S(=O)(=O)Nc2ccc(O)c3ccccc23)c1 -1.57%, COc1ccc(S(=O)(=O)N2CCN(C(=O)COc3ccccc3)CC2)cc1 -13.5%, O=C(O)c1ccccc1-c1nc2ccccc2[nH]1 -2.13%
